From paper PMC4974644
These are yes or no findings as the source states them, for the method shown. In cells and extracts the contact can be indirect. Some results given as binding are weak or reduced against the parent protein; the word gives no strength. Where a sequence is shown, tags or fusion partners need not be part of it.

How the values were obtained:
Experiment in all cases: co-IP; HEK293T cell lysates doubly transfected with SALM4 (full-length, domains or deletion variants) + SALM2/3/5; immunoprecipitated and immunoblotted with the indicated antibodies (Figs 4d-f and 5c-e)
[1] = target: T1, SALM3, EGFP- or Myc-tagged full-length (Fig. 4e) (UniProt Q80XU8)
T1 sequence: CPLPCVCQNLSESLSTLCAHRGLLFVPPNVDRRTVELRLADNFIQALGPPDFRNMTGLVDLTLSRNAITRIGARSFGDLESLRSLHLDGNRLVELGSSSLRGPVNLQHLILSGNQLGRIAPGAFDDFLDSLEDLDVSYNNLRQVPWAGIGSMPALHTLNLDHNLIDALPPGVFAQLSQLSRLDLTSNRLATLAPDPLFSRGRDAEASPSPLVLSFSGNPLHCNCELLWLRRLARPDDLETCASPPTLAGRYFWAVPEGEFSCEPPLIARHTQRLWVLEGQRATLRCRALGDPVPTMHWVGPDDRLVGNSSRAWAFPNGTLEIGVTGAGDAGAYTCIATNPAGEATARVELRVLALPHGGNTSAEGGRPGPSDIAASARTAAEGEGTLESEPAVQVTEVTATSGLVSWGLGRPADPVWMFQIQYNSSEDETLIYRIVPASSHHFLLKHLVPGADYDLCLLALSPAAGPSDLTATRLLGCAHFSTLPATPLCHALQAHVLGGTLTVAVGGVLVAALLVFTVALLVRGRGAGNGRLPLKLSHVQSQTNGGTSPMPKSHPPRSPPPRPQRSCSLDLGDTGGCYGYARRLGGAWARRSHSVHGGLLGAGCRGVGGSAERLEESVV

[2] = target: T2, SALM5, EGFP- or Myc-tagged full-length (Fig. 4f) (UniProt Q8BXA0)
T2 sequence: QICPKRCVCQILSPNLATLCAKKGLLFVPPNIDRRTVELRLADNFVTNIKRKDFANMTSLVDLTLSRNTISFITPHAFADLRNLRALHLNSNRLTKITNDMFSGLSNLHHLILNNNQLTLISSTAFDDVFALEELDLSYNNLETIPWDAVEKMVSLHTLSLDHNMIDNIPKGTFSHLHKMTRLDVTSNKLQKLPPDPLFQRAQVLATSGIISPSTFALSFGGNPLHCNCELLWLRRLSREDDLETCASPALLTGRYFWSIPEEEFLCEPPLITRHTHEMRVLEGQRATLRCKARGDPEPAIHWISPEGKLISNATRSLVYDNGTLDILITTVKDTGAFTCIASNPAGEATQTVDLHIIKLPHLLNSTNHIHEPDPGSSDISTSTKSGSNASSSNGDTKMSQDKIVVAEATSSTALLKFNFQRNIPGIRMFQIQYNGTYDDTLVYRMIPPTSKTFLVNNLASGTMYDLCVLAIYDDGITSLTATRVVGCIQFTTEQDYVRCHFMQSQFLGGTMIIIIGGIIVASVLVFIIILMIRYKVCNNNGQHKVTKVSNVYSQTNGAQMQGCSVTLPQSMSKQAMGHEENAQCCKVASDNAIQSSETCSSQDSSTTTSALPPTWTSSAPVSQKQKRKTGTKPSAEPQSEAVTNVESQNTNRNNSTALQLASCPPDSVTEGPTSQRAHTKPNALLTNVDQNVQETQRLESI

[3] = target: T3, SALM2, EGFP- or Myc-tagged full-length (Fig. 4d) (UniProt Q2WF71)
T3 sequence: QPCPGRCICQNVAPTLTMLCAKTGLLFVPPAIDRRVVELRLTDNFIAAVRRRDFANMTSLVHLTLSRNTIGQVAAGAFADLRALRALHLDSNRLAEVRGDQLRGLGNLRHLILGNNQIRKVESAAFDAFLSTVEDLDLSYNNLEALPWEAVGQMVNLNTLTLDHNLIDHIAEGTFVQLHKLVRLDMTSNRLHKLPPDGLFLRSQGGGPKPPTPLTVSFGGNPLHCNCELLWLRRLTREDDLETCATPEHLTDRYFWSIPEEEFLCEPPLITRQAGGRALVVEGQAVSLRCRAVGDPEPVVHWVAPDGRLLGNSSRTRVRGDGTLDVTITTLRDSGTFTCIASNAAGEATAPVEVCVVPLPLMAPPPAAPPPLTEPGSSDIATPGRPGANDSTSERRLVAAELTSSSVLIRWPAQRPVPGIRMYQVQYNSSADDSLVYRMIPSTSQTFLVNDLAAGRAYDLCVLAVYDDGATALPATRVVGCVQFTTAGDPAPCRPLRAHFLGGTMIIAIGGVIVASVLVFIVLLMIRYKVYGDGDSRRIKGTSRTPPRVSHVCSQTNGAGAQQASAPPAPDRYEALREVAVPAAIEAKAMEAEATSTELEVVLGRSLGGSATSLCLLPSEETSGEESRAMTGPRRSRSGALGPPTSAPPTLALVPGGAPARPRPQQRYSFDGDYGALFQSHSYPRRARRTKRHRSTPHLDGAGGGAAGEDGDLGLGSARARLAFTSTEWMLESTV

SALM5-EGFP (Fig. 5e) = target: T4, SALM5-EGFP (Fig. 5e) (UniProt Q8BXA0)
T4 sequence: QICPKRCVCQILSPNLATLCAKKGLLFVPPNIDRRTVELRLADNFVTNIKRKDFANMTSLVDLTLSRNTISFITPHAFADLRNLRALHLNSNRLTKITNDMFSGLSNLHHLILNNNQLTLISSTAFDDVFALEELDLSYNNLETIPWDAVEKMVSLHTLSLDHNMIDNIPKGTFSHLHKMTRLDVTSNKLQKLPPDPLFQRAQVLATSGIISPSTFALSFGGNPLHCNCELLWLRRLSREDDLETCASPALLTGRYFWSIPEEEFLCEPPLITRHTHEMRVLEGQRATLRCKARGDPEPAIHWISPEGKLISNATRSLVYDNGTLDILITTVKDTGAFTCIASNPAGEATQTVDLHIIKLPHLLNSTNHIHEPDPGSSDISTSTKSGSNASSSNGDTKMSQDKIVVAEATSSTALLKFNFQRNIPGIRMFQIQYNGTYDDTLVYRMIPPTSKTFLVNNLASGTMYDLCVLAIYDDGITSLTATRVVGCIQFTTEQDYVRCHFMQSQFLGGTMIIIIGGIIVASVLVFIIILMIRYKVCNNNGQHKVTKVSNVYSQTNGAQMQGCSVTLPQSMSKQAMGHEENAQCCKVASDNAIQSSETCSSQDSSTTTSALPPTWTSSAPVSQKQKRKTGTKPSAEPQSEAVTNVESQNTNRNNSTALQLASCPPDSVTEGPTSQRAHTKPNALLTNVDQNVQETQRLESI

SALM3-EGFP (Fig. 5d) = target: T5, SALM3-EGFP (Fig. 5d) (UniProt Q80XU8)
T5 sequence: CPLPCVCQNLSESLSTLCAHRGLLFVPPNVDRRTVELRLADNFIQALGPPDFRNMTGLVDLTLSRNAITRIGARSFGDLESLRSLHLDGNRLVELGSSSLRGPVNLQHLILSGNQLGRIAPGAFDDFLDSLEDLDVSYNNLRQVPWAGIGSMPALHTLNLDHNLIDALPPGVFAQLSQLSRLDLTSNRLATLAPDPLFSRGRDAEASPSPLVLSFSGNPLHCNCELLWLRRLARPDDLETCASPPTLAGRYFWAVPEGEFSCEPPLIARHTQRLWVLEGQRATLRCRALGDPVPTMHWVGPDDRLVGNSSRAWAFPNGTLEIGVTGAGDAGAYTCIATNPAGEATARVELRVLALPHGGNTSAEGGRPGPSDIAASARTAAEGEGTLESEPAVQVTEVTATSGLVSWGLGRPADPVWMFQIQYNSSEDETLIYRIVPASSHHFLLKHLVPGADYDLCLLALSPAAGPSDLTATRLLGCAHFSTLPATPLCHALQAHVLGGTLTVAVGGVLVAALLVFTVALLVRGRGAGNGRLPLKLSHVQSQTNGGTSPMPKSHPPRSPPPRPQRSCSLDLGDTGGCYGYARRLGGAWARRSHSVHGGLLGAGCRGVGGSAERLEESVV

Myc-SALM2 (Fig. 5c) = target: T6, Myc-SALM2 (Fig. 5c) (UniProt Q2WF71)
T6 sequence: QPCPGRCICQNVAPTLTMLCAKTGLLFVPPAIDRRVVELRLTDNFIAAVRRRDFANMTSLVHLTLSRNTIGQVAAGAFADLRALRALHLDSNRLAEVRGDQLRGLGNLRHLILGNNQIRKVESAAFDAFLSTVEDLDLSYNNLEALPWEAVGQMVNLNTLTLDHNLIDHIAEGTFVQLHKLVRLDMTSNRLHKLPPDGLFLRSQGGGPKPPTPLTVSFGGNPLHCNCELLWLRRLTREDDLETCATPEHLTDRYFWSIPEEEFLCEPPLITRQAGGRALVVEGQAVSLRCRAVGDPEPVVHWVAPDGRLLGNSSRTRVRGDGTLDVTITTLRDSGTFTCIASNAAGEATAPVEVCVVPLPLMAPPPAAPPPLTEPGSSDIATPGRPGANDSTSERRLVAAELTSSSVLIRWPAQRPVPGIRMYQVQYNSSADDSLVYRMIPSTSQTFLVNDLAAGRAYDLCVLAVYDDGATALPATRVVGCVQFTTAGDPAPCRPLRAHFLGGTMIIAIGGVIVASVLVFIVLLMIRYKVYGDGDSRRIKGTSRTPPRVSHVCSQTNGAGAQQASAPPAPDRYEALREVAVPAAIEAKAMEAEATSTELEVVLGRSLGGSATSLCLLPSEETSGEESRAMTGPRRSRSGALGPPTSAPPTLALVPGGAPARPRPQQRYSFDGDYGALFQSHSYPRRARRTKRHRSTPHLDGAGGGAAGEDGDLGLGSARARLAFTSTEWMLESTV

B1: HA/Myc-SALM4 ectodomain (SALM4 in the pDisplay vector tagged by both HA and Myc) (domain or fragment, UniProt Q8BLY3 17-539)
chain: SSPPQPAISSPCPRRCRCQTQSMPLSVLCPGAGLLFVPPSLDRRAAELRLADNFIAAVRRRDLANMTGLLHLSLSRNTIRHVAAGAFADLRALRALHLDGNRLTSLGEGQLRGLVNLRHLILSNNQLAALAAGALDDCAETLEDLDLSYNNLEQLPWEALGRLGNVNTLGLDHNLLASVPAGAFSRLHKLARLDMTSNRLTTIPPDPLFSRLPLLARPRGSPASALVLAFGGNPLHCNCELVWLRRLAREDDLEACASPPALGGRYFWAVGEEEFVCEPPVVTHRSPPLAVPAGRPAALRCRAVGDPEPRVRWVSPQGRLLGNSSRARAFPNGTLELLVTEPEDGGTFTCIAANAAGEATAAVELTVGPPPPPQLANSTSCDPPRDGEPDALTPPSAASASAKVADTVAPTDRGVQVTEHGATAALVQWPDQRPVPGIRMYQIQYNSSADDILVYRMIPADSRSFLLTDLASGRTYDLCVLAVYEDSATGLTATRPVGCARFSTEPALRPCAAPHAPFLGGTM
- binding [1]: no binding
- binding [2]: binds
- binding [3]: binds

B2: HA-SALM4-ΔLRR (aa 287–627) (domain or fragment, UniProt Q8BLY3 287-626)
chain: GEEEFVCEPPVVTHRSPPLAVPAGRPAALRCRAVGDPEPRVRWVSPQGRLLGNSSRARAFPNGTLELLVTEPEDGGTFTCIAANAAGEATAAVELTVGPPPPPQLANSTSCDPPRDGEPDALTPPSAASASAKVADTVAPTDRGVQVTEHGATAALVQWPDQRPVPGIRMYQIQYNSSADDILVYRMIPADSRSFLLTDLASGRTYDLCVLAVYEDSATGLTATRPVGCARFSTEPALRPCAAPHAPFLGGTMIIALGGVIVASVLVFIFVLLLRYKVHGGQPPGKAKATAPVSSVCSQTNGALGPVPSAPAPEPAAPRAHTVVQLDCEPWGPSHEPAGP
- binding (SALM5-EGFP (Fig. 5e)): no binding
- binding (SALM3-EGFP (Fig. 5d)): binds
- binding (Myc-SALM2 (Fig. 5c)): no binding

B3: EGFP-tagged cytoplasmic domain of SALM4 (aa 561–626) (domain or fragment, UniProt Q8BLY3 561-626)
chain: RYKVHGGQPPGKAKATAPVSSVCSQTNGALGPVPSAPAPEPAAPRAHTVVQLDCEPWGPSHEPAGP
- binding [1]: no binding
- binding [3]: no binding
